{"source": "paper PMC6042327", "about": "(BMC Biology, 2018)", "proteins": {"B1": {"name": "SGTA FLΔQ ([…]) (domain or fragment)", "chain": "not shown", "notes": "SGTA, human, […] (lacks the Q-rich region); also called construct lacking the Q-rich region; not shown: thioredoxin A, N-terminal, cleaved; His6, N-terminal, cleaved"}}, "biological_target": "the molecule itself", "assay": "native MS; protein 5-10 uM in 0.20-0.75 M ammonium acetate pH 7.0, electrosprayed, source temperature 20 °C; self-association (monomer to dimer)", "data": [{"protein": "B1", "values": [{"measurement": "stoichiometry N", "value": 2}]}]}
